{
  "source": "the BET-seq Pho4 binding data (Le et al. 2018)",
  "note": "The list shows a part of the results. The energies were worked out here from pooled read counts, against the library average; single values are noisy.",
  "data": [
    {"biological_target": "T1, Pho4 (S. cerevisiae) (UniProt P07270)", "T1 sequence": "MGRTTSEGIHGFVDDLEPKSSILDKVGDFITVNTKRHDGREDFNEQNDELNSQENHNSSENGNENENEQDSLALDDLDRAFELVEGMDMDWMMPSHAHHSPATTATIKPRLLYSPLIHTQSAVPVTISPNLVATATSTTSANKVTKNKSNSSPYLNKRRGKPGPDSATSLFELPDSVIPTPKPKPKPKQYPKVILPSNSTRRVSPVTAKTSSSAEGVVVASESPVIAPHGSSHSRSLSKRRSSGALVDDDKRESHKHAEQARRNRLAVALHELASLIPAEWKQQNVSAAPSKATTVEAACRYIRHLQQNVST", "test": "relative binding free energy (BET-seq); higher = weaker binding", "conditions": "reference: library average", "units": {"relative binding free energy": "kcal/mol"}, "values": [
      {"sequence": "TAGTACACGTGAGGAT", "relative binding free energy": 0.28},
      {"sequence": "CTAGTCACGTGAGTTA", "relative binding free energy": 0.27},
      {"sequence": "GTTCCCACGTGGGGTA", "relative binding free energy": -0.17},
      {"sequence": "TTAGGCACGTGACGGA", "relative binding free energy": -0.09},
      {"sequence": "CTGCACACGTGGTGGT", "relative binding free energy": -0.07},
      {"sequence": "GGTTGCACGTGGTAAG", "relative binding free energy": 0.05},
      {"sequence": "ACTTGCACGTGGTATA", "relative binding free energy": -0.02},
      {"sequence": "TGGGGCACGTGAGCCT", "relative binding free energy": 0.08},
      {"sequence": "CTTTGCACGTGTAGAG", "relative binding free energy": 0.01},
      {"sequence": "TCTGTCACGTGAAGGT", "relative binding free energy": 0.26},
      {"sequence": "TTGTGCACGTGTAAGT", "relative binding free energy": 0.06},
      {"sequence": "GTTGCCACGTGATTGT", "relative binding free energy": 0.2},
      {"sequence": "TGAGTCACGTGACAGT", "relative binding free energy": 0.14},
      {"sequence": "TGCTTCACGTGCTTGG", "relative binding free energy": 0.17},
      {"sequence": "CGGTTCACGTGAAGTG", "relative binding free energy": 0.42},
      {"sequence": "TTAAGCACGTGCGGGA", "relative binding free energy": -0.15},
      {"sequence": "CTGTTCACGTGGGTCT", "relative binding free energy": -0.04},
      {"sequence": "CTGGGCACGTGGACGG", "relative binding free energy": -0.13},
      {"sequence": "CGGAACACGTGAGGGG", "relative binding free energy": 0.22},
      {"sequence": "CGGAGCACGTGGGTTG", "relative binding free energy": -0.12},
      {"sequence": "GGGGCCACGTGTGATG", "relative binding free energy": 0.14},
      {"sequence": "CTTGACACGTGGAGGG", "relative binding free energy": 0.02},
      {"sequence": "CTTGTCACGTGGAGGT", "relative binding free energy": 0.19},
      {"sequence": "AATCGCACGTGATGTT", "relative binding free energy": 0.22},
      {"sequence": "TGTCACACGTGGGTGT", "relative binding free energy": -0.13},
      {"sequence": "TGGGTCACGTGGTTCC", "relative binding free energy": 0.05},
      {"sequence": "AGTACCACGTGGGGTT", "relative binding free energy": -0.29},
      {"sequence": "AGACTCACGTGGTAGG", "relative binding free energy": 0.29},
      {"sequence": "TAGGGCACGTGTAACG", "relative binding free energy": -0.04},
      {"sequence": "GGTGACACGTGTGTCA", "relative binding free energy": 0.04},
      {"sequence": "TCAAGCACGTGGTGGT", "relative binding free energy": -0.2},
      {"sequence": "CTGGTCACGTGGGTAT", "relative binding free energy": -0.02},
      {"sequence": "AGGCTCACGTGCGTGG", "relative binding free energy": -0.02},
      {"sequence": "GTAAGCACGTGGGATT", "relative binding free energy": -0.12},
      {"sequence": "ATCGACACGTGTTGTG", "relative binding free energy": 0.06},
      {"sequence": "GATAGCACGTGATATT", "relative binding free energy": 0.2},
      {"sequence": "GGTTTCACGTGAGGCG", "relative binding free energy": 0.47},
      {"sequence": "AGGATCACGTGTGGAT", "relative binding free energy": 0.25},
      {"sequence": "TTTTGCACGTGATTTC", "relative binding free energy": 0.19},
      {"sequence": "TGAATCACGTGGGAAT", "relative binding free energy": 0.18},
      {"sequence": "GGGGGCACGTGCGGGC", "relative binding free energy": -0.11},
      {"sequence": "GGACTCACGTGTGGTC", "relative binding free energy": 0.29},
      {"sequence": "GTTATCACGTGTGTGC", "relative binding free energy": 0.21},
      {"sequence": "GGTTCCACGTGGTGAA", "relative binding free energy": 0.11},
      {"sequence": "GTAAACACGTGATTTT", "relative binding free energy": 0.22},
      {"sequence": "TTGAACACGTGGGGGG", "relative binding free energy": -0.03},
      {"sequence": "GTGGTCACGTGCTTTT", "relative binding free energy": 0.17},
      {"sequence": "TCAGGCACGTGCGTGT", "relative binding free energy": -0.21},
      {"sequence": "GGCTTCACGTGTCGGT", "relative binding free energy": 0.2},
      {"sequence": "GCTTTCACGTGATGGT", "relative binding free energy": 0.29},
      {"sequence": "GGAGGCACGTGTGGTG", "relative binding free energy": -0.01},
      {"sequence": "AGGTGCACGTGAAGGG", "relative binding free energy": 0.3},
      {"sequence": "TTTAACACGTGGAGTT", "relative binding free energy": 0.15},
      {"sequence": "GTTAGCACGTGAAGGT", "relative binding free energy": 0.16},
      {"sequence": "GGAGGCACGTGGAGCG", "relative binding free energy": -0.14},
      {"sequence": "TATGTCACGTGAATAG", "relative binding free energy": 0.36},
      {"sequence": "TGCTTCACGTGGTAAT", "relative binding free energy": 0.29},
      {"sequence": "GCCTTCACGTGGGAGT", "relative binding free energy": 0.3},
      {"sequence": "GTCTACACGTGGCTGT", "relative binding free energy": 0.18},
      {"sequence": "CTTGTCACGTGTTCGA", "relative binding free energy": 0.2},
      {"sequence": "AAGGGCACGTGTTACG", "relative binding free energy": -0.19},
      {"sequence": "GTGGACACGTGGTTGA", "relative binding free energy": 0.04},
      {"sequence": "TATTTCACGTGCCTGG", "relative binding free energy": 0.18},
      {"sequence": "TGGATCACGTGTGGTT", "relative binding free energy": 0.35},
      {"sequence": "AAGTGCACGTGTGATT", "relative binding free energy": 0.12},
      {"sequence": "TGTGACACGTGGAGCA", "relative binding free energy": 0.04},
      {"sequence": "ATTTTCACGTGGGAGC", "relative binding free energy": 0.22},
      {"sequence": "CTTTGCACGTGTTGAG", "relative binding free energy": 0.03},
      {"sequence": "TAAGACACGTGCATGG", "relative binding free energy": 0.06},
      {"sequence": "GTAGACACGTGTGGGT", "relative binding free energy": 0.06},
      {"sequence": "TTGGGCACGTGTTTAG", "relative binding free energy": -0.05},
      {"sequence": "GGCGACACGTGACGGG", "relative binding free energy": 0.13},
      {"sequence": "GCTTTCACGTGCGTTG", "relative binding free energy": 0.16},
      {"sequence": "CGTGGCACGTGGCGCG", "relative binding free energy": -0.23},
      {"sequence": "GCGTGCACGTGCCGGG", "relative binding free energy": -0.05},
      {"sequence": "ATCGTCACGTGGCGGG", "relative binding free energy": -0.12},
      {"sequence": "AGGATCACGTGTGGTA", "relative binding free energy": 0.32},
      {"sequence": "GCTTTCACGTGGGGTA", "relative binding free energy": 0.08},
      {"sequence": "AGGTGCACGTGAGAGT", "relative binding free energy": 0.26},
      {"sequence": "TTCTGCACGTGCGAGG", "relative binding free energy": 0.15},
      {"sequence": "GGCTACACGTGGTTGA", "relative binding free energy": 0.14},
      {"sequence": "GTCGTCACGTGGTGGC", "relative binding free energy": 0.12},
      {"sequence": "GGGGGCACGTGGCTGA", "relative binding free energy": -0.07},
      {"sequence": "AAGGGCACGTGCTCGG", "relative binding free energy": -0.35},
      {"sequence": "TGCCACACGTGTGTTT", "relative binding free energy": 0.11},
      {"sequence": "GTGTGCACGTGGGATG", "relative binding free energy": -0.02},
      {"sequence": "CGGTGCACGTGGTCGT", "relative binding free energy": -0.19},
      {"sequence": "GAAATCACGTGGTGGG", "relative binding free energy": 0.27},
      {"sequence": "TTAGACACGTGATGGA", "relative binding free energy": 0.18},
      {"sequence": "TTCTACACGTGGTGGG", "relative binding free energy": 0},
      {"sequence": "CTCGTCACGTGAGGGG", "relative binding free energy": 0.26},
      {"sequence": "TTCTTCACGTGTTAAG", "relative binding free energy": 0.2},
      {"sequence": "ATTCGCACGTGGGTAG", "relative binding free energy": -0.22},
      {"sequence": "TAAAGCACGTGAGGTT", "relative binding free energy": 0.14},
      {"sequence": "ATTGGCACGTGGCTAT", "relative binding free energy": -0.14},
      {"sequence": "ATAGACACGTGTGTGT", "relative binding free energy": -0.04},
      {"sequence": "CTTGTCACGTGGGCTG", "relative binding free energy": -0.2},
      {"sequence": "GTTAACACGTGGGGTC", "relative binding free energy": -0.13},
      {"sequence": "CAGTTCACGTGGGGAG", "relative binding free energy": 0.2},
      {"sequence": "GGTTTCACGTGGAAAG", "relative binding free energy": 0.26},
      {"sequence": "TGGATCACGTGTTGGC", "relative binding free energy": 0.32},
      {"sequence": "ATGTTCACGTGGCAGT", "relative binding free energy": 0.18},
      {"sequence": "ATTGTCACGTGTATTT", "relative binding free energy": 0.18},
      {"sequence": "AAGTTCACGTGCGTTT", "relative binding free energy": 0.29},
      {"sequence": "TTCCACACGTGGTGGG", "relative binding free energy": 0.05},
      {"sequence": "GGAGCCACGTGAGTTG", "relative binding free energy": 0.12},
      {"sequence": "GTTGTCACGTGGCTTA", "relative binding free energy": 0.01},
      {"sequence": "CGTGACACGTGGGTAG", "relative binding free energy": -0.17},
      {"sequence": "TAGTGCACGTGATTAT", "relative binding free energy": 0.17},
      {"sequence": "GTTAGCACGTGGGACG", "relative binding free energy": 0.02},
      {"sequence": "ATGAACACGTGGGAGG", "relative binding free energy": -0.08},
      {"sequence": "GGATTCACGTGTCAGT", "relative binding free energy": 0.41},
      {"sequence": "AAGTTCACGTGTATTA", "relative binding free energy": 0.24},
      {"sequence": "GGGTACACGTGTGGTA", "relative binding free energy": 0.14},
      {"sequence": "AGACGCACGTGGGTGA", "relative binding free energy": -0.25}
    ]}
  ]
}
